Results from the BET-seq Pho4 binding data (Le et al. 2018).
The list shows a part of the results. These are noisy estimates, calculated here from bound and input reads.

These sequences were tested against T1, Pho4 (S. cerevisiae) (UniProt P07270) (assay: relative binding free energy (BET-seq); higher = weaker binding). Details: reference: library average.
T1 sequence: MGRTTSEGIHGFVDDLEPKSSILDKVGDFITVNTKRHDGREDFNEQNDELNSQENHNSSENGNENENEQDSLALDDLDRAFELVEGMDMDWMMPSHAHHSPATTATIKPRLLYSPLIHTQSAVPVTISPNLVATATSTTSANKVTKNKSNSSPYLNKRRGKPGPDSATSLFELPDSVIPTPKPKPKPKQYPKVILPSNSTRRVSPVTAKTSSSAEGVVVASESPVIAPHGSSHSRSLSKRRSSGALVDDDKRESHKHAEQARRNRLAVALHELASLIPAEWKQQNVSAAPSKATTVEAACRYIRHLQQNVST

Row | Sequence | relative binding free energy [kcal/mol]
1 | TGTTTCACGTGTATCG | 0.28
2 | GTTGTCACGTGTACAT | 0.09
3 | TGGTTCACGTGCGCAG | 0.35
4 | CGGGCCACGTGGAGGT | 0.05
5 | CATATCACGTGTAGGG | 0.17
6 | GGAAACACGTGTAGTT | -0.01
7 | ATGGTCACGTGGTCAA | -0.04
8 | GGGAACACGTGAGGTT | 0.42
9 | GGTTGCACGTGATTAG | 0.18
10 | TGTATCACGTGTTTAG | 0.18
11 | CGTAGCACGTGGATAT | 0.01
12 | ACTTGCACGTGTCTTT | 0.09
13 | TGGTTCACGTGTGAAC | 0.21
14 | AACTACACGTGGTGGG | -0.02
15 | GAATGCACGTGCTGTT | -0.05
16 | ATTGACACGTGCCGGG | -0.06
17 | GGTATCACGTGTATGT | 0.22
18 | GATGACACGTGGGGCG | 0.07
19 | TGAGTCACGTGGAATG | 0.23
20 | TTTCGCACGTGTAGTA | -0.01
21 | TTGGTCACGTGACGGC | 0.38
22 | TGGCGCACGTGCTTGT | -0.23
23 | TAGTGCACGTGAGTTT | 0.23

Row | Sequence | relative binding free energy [kcal/mol]
24 | CGTAACACGTGGAGTT | -0.01
25 | GTGAACACGTGCGGTA | 0.06
26 | AAGGGCACGTGAATGG | 0.17
27 | TATTACACGTGAGTGT | 0.24
28 | TTATACACGTGATATG | 0.07
29 | TTCAGCACGTGAATTG | 0.13
30 | GCCTCCACGTGGGGGG | -0.02
31 | AGGTTCACGTGGAGGG | 0.26
32 | TCGCTCACGTGTGTTT | 0.19
33 | TGTCTCACGTGAATGT | 0.26
34 | ATTTCCACGTGGTAGT | -0.15
35 | GGGGACACGTGTCTGT | 0.15
36 | GGTAGCACGTGGCGGA | -0.11
37 | ATCAGCACGTGGGAGG | -0.19
38 | CAGTGCACGTGGTGGC | -0.1
39 | GTAGACACGTGTTATG | -0.08
40 | TGGTTCACGTGTTCGT | 0.25
41 | GAAGGCACGTGGACGT | 0.13
42 | GTGGGCACGTGGTGCG | -0.15
43 | TGCGGCACGTGATTTT | 0
44 | ACTTTCACGTGATAGT | 0.23
45 | AGTTACACGTGTGGCG | 0.08
46 | GTTTTCACGTGCGGTG | 0.41

Row | Sequence | relative binding free energy [kcal/mol]
47 | TTTGACACGTGGTGTT | -0.02
48 | TAGGTCACGTGGTACT | -0.06
49 | CATGTCACGTGTCGGG | 0.13
50 | TATTGCACGTGGAGGT | -0.01
51 | AGCATCACGTGGTTAG | 0.11
52 | GATAGCACGTGGTCGT | -0.06
53 | CGTAACACGTGATAGG | 0.2
54 | TGAAGCACGTGGACGG | -0.12
55 | GCGTGCACGTGGGAGC | -0.02
56 | GGTGACACGTGACGGC | 0.21
57 | GTGCTCACGTGTGTTG | 0.32
58 | ATTTACACGTGCAAGG | 0.2
59 | CTTAGCACGTGTGGTC | -0.12
60 | AGGGCCACGTGAGGTT | -0.05
61 | TTCTGCACGTGTGAAT | 0.07
62 | AGCGTCACGTGGCGAG | 0.03
63 | TGATGCACGTGGTGGT | 0.01
64 | TTAAGCACGTGTCTGG | -0.16
65 | TTGGGCACGTGAAGAG | 0.16
66 | TGATCCACGTGAGGGT | 0.22
67 | TAGGGCACGTGGTAGG | -0.24
68 | GGTGACACGTGTTTAA | 0.06
69 | ATTTTCACGTGCTGCT | 0.14

Row | Sequence | relative binding free energy [kcal/mol]
70 | GGCGTCACGTGTTTCT | 0.27
71 | GTTTTCACGTGCTCTT | 0.21
72 | GGATGCACGTGTCGGC | 0.05
73 | TGATACACGTGTTCTG | -0.08
74 | GCAGGCACGTGGGATT | -0.15
75 | TTTATCACGTGTACTA | 0.18
76 | TATATCACGTGGGATT | 0.01
77 | GGAGCCACGTGCGGTT | 0.01
78 | TTTCTCACGTGGGTAT | -0.05
79 | CTATTCACGTGGGATT | 0.1
80 | TAAAGCACGTGTATGT | -0.15
81 | AGGTGCACGTGTTGAG | 0.02
82 | GAGATCACGTGAGGAT | 0.4
83 | CTGGGCACGTGGGCCT | -0.17
84 | CGGTTCACGTGAGGGA | 0.3
85 | AAAAGCACGTGGGGGT | -0.23
86 | GCTGGCACGTGGTGAG | -0.05
87 | TTGGCCACGTGCTTGG | -0.12
88 | TTTGGCACGTGTAGTA | -0.11
89 | TCTGGCACGTGGGGGG | -0.16
90 | GATAGCACGTGCAAGG | 0.08
91 | GGAGGCACGTGCTTTG | -0.03
92 | TCGCTCACGTGGGGTA | 0.12

Row | Sequence | relative binding free energy [kcal/mol]
93 | TGAAGCACGTGTATTT | 0.09
94 | TGAGTCACGTGGCGTC | -0.03
95 | TGTGTCACGTGTCGTA | 0.03
96 | TGCCTCACGTGAGTTT | 0.44
97 | TTTACCACGTGGGAGT | -0.13
98 | TGATTCACGTGGTTAC | 0.07
99 | TTGCACACGTGTTATT | 0.09
100 | TTTGTCACGTGATGGA | 0.25
101 | TCGTGCACGTGGAGAG | 0.04
102 | TTGGTCACGTGAATCA | 0.26
103 | GTTAGCACGTGTGCAG | 0.04
104 | TCTCACACGTGTGGGT | 0.1
105 | GGTTTCACGTGCTTGA | 0.25
106 | AAGGGCACGTGCTGGT | -0.33
107 | TAAGGCACGTGATCTT | -0.04
108 | ATTTCCACGTGAGGGG | 0.23
109 | AAAATCACGTGTCTGG | 0.45
110 | TGAGGCACGTGATTAG | -0.07
111 | GTTTTCACGTGGCAGA | 0.36
112 | GGAATCACGTGAGGCG | 0.27
113 | TCAGGCACGTGCATTG | 0
114 | ACGTTCACGTGGGGTT | 0.1
115 | GGGGGCACGTGGGCAA | -0.22
